Test results: the supplement of paper PMC3334620
Over roughly 33,000 sequences, “E-score (-0.5 to 0.5)” has its median near -0.032; the highest 2% begin near 0.36. Some of the results follow.

Target: T1, Sko1 (UniProt Q02100)
T1 sequence: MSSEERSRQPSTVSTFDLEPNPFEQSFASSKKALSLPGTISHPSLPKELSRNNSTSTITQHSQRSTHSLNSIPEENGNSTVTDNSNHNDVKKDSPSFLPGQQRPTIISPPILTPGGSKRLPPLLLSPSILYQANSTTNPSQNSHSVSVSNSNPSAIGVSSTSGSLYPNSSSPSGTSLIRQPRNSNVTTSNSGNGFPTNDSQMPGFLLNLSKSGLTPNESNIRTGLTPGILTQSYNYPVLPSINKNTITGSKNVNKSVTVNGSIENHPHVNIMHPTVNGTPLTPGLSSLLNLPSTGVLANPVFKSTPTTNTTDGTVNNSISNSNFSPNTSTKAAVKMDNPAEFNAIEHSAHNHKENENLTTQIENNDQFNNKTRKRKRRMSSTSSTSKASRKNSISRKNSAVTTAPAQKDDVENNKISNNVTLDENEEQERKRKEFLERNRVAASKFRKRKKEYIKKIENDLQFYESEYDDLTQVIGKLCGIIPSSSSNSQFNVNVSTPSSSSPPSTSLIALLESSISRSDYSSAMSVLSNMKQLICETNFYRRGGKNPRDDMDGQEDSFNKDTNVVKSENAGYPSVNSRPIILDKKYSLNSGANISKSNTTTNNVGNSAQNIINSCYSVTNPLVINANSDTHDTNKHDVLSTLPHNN
Assay: PBM E-score (8-mer binding enrichment) (E-score (-0.5 to 0.5)); higher = stronger / more preferred TF binding; most listed sequences are background and not binding sites
Conditions: protein concentration: 200 nM; construct: GST-full length
How it was run: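 Each ungapped eight-base word and its reverse complement, pooled, received an E-score from the Universal PBM Analysis Suite. Underlying scans, normalised with masliner, recorded fluorescent anti-GST bound to GST-tagged yeast transcription factors. These were applied at about 100-200 nM to universal all-10-mer Agilent arrays double-stranded by primer extension.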

Sequence | PBM E-score
CGGGTCTC | -0.283
AACCAGAT | -0.071
GTTTCTGA | 0.122
TGCTCGAA | 0.063
CCCTAAAC | -0.0916
CGCGAGCA | -0.197
ATAGAATG | 0.121
ACCTATCC | -0.141
CATGACTA | 0.0134
AATTAATG | 0.188
AAATTTTC | 0.067
CCTGTTCA | -0.203
ACTTGTGG | -0.0685
CACTTAGC | -0.179
CCCACAAG | -0.155
CAAGGAGC | -0.0662
AAGGATCG | 0.0147
CTGCTACA | -0.0447
CGCGGAGA | -0.0338
AAATGACA | 0.272
ATTCCTGA | -0.0957
TCGACTAA | 0.0754
CCGTGTCA | -0.186
CAAACTTC | 0.116
AGGTACTA | 0.0453

Sequence | PBM E-score
CCCTGGGC | -0.174
TCGAGACA | 0.00957
CCGGGGCC | -0.368
CCCCCCCC | -0.46
AAAACAGC | -0.0494
ATATCCGA | 0.0954
AGTATCCG | -0.131
ACGGAGTC | -0.0548
CCCCGGTA | -0.165
CACCCCCC | -0.364
TGTCGCAA | 0.0467
AACCCTAG | 0.0089
CACGGACC | -0.209
GTCCGATA | -0.0335
CCGTAGTC | -0.266
GAGGACGC | -0.319
GAATGAGC | 0.0937
GAGCTGGC | -0.222
ATTGTGGC | -0.0131
AAACCTCA | -0.043
AAACGACC | -0.142
ACACAGGA | -0.128
CGTCCAGC | -0.0938
GCATGAGC | -0.136
GCTCCAAA | -0.161

Sequence | PBM E-score
ATCCTATG | -0.0706
AACGAGCA | -0.13
ATTAATAA | 0.168
ATCTCCGG | -0.165
TGAGGGAA | -0.0846
ATTTAAGG | 0.148
AATCATGG | -0.0769
AATAGTCA | 0.00533
AGCAGGCC | -0.239
CTACGCTA | 0.076
AACGTCTC | 0.111
ATTTCTGG | -0.0124
ATCTCGAA | 0.0474
GGAGGATA | -0.14
CTGTGAGC | 0.0825
TACACGTA | 0.453
CGTCATCA | 0.489
CCCTACAC | -0.0471
AATGAGGT | 0.324
CAACGCAC | 0.173
ATAATAGC | 0.0417
CTAGTCTC | -0.0396
ACGTGAAC | 0.311
CGTGGAAC | -0.0617
ATTGTGGA | 0.0573

Sequence | PBM E-score
CCATTCAG | 0.0407
CAGATGCC | -0.0631
GACGGGGA | -0.183
CGCGGGCC | -0.115
ATGTAGTC | 0.107
CACTACAG | 0.0339
CGGAGTAC | -0.316
GGTAACCA | -0.101
GCTTTGAA | -0.0773
TGATCCCA | -0.103
AAAAGCCA | -0.0529
CCCGTGAG | -0.124
CCCGCAGG | -0.274
TAGTACAA | -0.00782
CACTTCTA | -0.189
AAGAACGA | 0.0924
CTGATCAC | -0.0249
CGCACTTA | 0.0851
TCGGTACA | 0.117
ACGTCAGG | 0.457
CATCGGGG | -0.219
AAAGGCTG | -0.182
AGGTCCTA | -0.137
GCTTGGTA | 0.0615
CATGGTAC | -0.0945

Sequence | PBM E-score
GGATGGGA | -0.267
ACGTCAAG | 0.444
AAGGCACA | -0.107
GGTCATAA | 0.138
AGTGCCCC | -0.151
CATCGAGG | -0.0869
GTGCTCAA | 0.198
CCTCCCCC | -0.23
TAGGGTAA | 0.00468
ACGTGAAA | 0.386
ATCATGAT | 0.254
CGCCATTC | 0.0122
ACCCACTA | -0.00296
GGCGCGAC | -0.121
AGAAAGTA | 0.135
CCGTGCAC | -0.089
AAATGCCA | -0.0103
ACGTGTAA | 0.386
AAGCGCAG | -0.17
ATCCTCCC | -0.127
CATTACCA | 0.0577
AGGCGGGG | -0.239
CAAGGACC | -0.204
CCTTACTA | 0.0289
ACACTGTA | -0.0731

Sequence | PBM E-score
TCTCTCCA | -0.0408
TCCCAGAA | -0.185
ATTATTTA | 0.266
ATATTCGA | -0.0363
AGCGTACC | -0.0829
CCCGAATC | -0.275
GTATGCGA | 0.148
TCGCCTCA | -0.0924
AATCAATC | 0.0884
CTCCGTTA | -0.117
GATGTTAA | 0.155
ACAGATAA | 0.0507
TGAGCACA | 0.131
CAATTCAC | 0.049
CCTCACGC | 0.0875
ACGTACCT | 0.377
CCCCGACA | -0.11
AATTCCGT | 0.205
ACGCATGA | 0.292
CGGTGCAA | -0.251
CTCACCAG | -0.0682
ACCAAGTC | -0.0998
TGCCGCAA | 0.0562
TATGAGAA | 0.07
AGGAACAT | 0.176

Sequence | PBM E-score
AGAAACTA | 0.0178
CTCAGCTA | -0.166
GATCAATA | 0.157
CAAGTAGC | 0.0226
ATAATTCG | 0.221
CGTCCACG | 0.239
AGCTTTTA | 0.167
CGGGCTAC | -0.127
CTAACTGA | -0.0156
GCGACGCA | 0.128
TGTACTAA | 0.0373
ACCATGGA | -0.112
GCGTGGAC | 0.0575
CGTGTCTA | 0.205
ACGCGAAC | 0.0905
GAAATACA | 0.268
GTGGTCAA | -0.113
CGAGATAC | 0.229
CTCTGGGA | -0.322
AGTCCACC | -0.263
AGTGGGCA | -0.0178
AAGAAGAG | -0.078
